We go through 102 sequences from a collection of fitness landscapes (doi:10.1038/s41467-024-54723-y).

The full ranking holds about 18,000 sequences; the median of “TetR repression strength (sort-seq, GFP reporter)” is about 0.23, and the highest 2% start at about 0.68. The list shows a part of the results.

UniProt P04483, sequence (P04483 whole entry): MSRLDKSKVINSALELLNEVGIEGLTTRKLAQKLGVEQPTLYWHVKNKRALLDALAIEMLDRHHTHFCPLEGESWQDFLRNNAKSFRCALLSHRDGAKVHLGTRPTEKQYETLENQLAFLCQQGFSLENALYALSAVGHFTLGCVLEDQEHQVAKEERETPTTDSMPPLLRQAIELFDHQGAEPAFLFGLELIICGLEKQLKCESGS

This assay deals with TetR (class B, Tn10) (UniProt P04483). The assay can be described thus: TetR repression strength (sort-seq, GFP reporter) (relative to tetO2 = 1); higher = stronger repression. As to conditions: E. coli. The method, boiled down:
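Escherichia coli SIG10-MAX cells carried a low-copy plasmid library in which eight operator positions were randomized between a constitutive promoter and sfGFP, and TetR was expressed constitutively. After 5 h of growth at 37 °C in LB with 50 µg/mL chloramphenicol, 10^6 cells were FACS-sorted into 13 fluorescence bins, and each bin was Illumina-sequenced. Repression strength was the top bin index plus one minus the read-weighted mean bin, divided by the value for the unaltered operator. Across three independent transformations, only library members with ≥30 reads in every replicate and a CV ≤0.5 were averaged.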
The sequence TCCCACTAAGTAGTCGAGA yielded a TetR repression strength of 0.126.
Next, TCCCGGGGAGTTACGGAGA: 0.447; TCCCCAAAAGTGGAAGAGA: 0.266; TCCCAGGGAGTCAGAGAGA: 0.186.
TCCCCGCCAGTCATCGAGA: the TetR repression strength came to 0.411.
Next, TCCCATTCAGTCGTCGAGA: 0.215; TCCCCTGAAGTGACAGAGA: 0.428.
In turn, TCCCGTACAGTTCATGAGA registered a TetR repression strength of 1.18.
As for TCCCGGTCAGTGGTGGAGA, the TetR repression strength was 0.24.
With TCCCCAGCAGTGTGCGAGA, the TetR repression strength was 0.179.
The sequence TCCCTGACAGTAATGGAGA showed a TetR repression strength of 0.0821.
Sequence TCCCGGCGAGTCCGCGAGA had a TetR repression strength of 0.325.
Regarding TCCCTCCCAGTGTCGGAGA, the TetR repression strength was found to be 0.295.
On to TCCCTGTGAGTTGTAGAGA, for which the TetR repression strength turned out to be 0.231.
Sequence TCCCTGGTAGTGGAGGAGA yielded a TetR repression strength of 0.101.
Regarding TCCCCTAAAGTCAAAGAGA, the TetR repression strength came to 0.429.
As for TCCCTTCGAGTTTACGAGA, the TetR repression strength was determined as 0.464.
TCCCGTAAAGTGTGTGAGA showed a TetR repression strength of 0.128.
With TCCCGGTAAGTGAGCGAGA, the TetR repression strength is 0.199.
For the sequence TCCCTGGGAGTTCGTGAGA, the TetR repression strength turned out to be 0.297.
As to TCCCTACCAGTGTGTGAGA, the TetR repression strength turned out to be 0.211.
TCCCAGCTAGTTTGCGAGA gave a TetR repression strength of 0.165.
Take TCCCTGTTAGTGGAGGAGA: the TetR repression strength was 0.142.
Next, TCCCGTAGAGTGTGTGAGA: 0.151.
TCCCGTACAGTTGAAGAGA came in with a TetR repression strength of 0.233.
In turn, TCCCATTCAGTCGTGGAGA had a TetR repression strength of 0.352.
As to TCCCTCTTAGTTCGAGAGA, the TetR repression strength was found to be 0.27.
In the case of TCCCCTCTAGTACAAGAGA, the TetR repression strength is 0.55.
Next, TCCCTGGGAGTTCCGGAGA: 0.165; TCCCGCTTAGTCCTCGAGA: 0.44.
Next, TCCCTATGAGTTTTTGAGA: 0.256; TCCCGGGAAGTGGGTGAGA: 0.22.
Consider TCCCTTCGAGTTTTAGAGA, for which the TetR repression strength was 0.572.
Next, TCCCAATAAGTTTCGGAGA: 0.346.
For the sequence TCCCCCGTAGTTTCAGAGA, the TetR repression strength is 0.496.
Next, TCCCATGGAGTGGGAGAGA: 0.033; TCCCCTAGAGTACCAGAGA: 0.0608.
TCCCGTGCAGTTACAGAGA: the TetR repression strength turned out to be 0.175.
Next, TCCCGGTGAGTAGGGGAGA: 0.198; TCCCAGGAAGTGTACGAGA: 0.425.
In the case of TCCCTATTAGTCCCAGAGA, the TetR repression strength stood at 0.32.
TCCCACCGAGTGTTGGAGA showed a TetR repression strength of 0.286.
Next, TCCCGGGGAGTCTGCGAGA: 0.395; TCCCGTGTAGTTTTGGAGA: 0.213.
As for TCCCCCTCAGTGGCGGAGA, the TetR repression strength stood at 0.127.
TCCCCGTTAGTGTGTGAGA yielded a TetR repression strength of 0.196.
TCCCCGACAGTGCTAGAGA: the TetR repression strength was 0.65.
Consider TCCCTTGGAGTATGGGAGA, for which the TetR repression strength was 0.272.
TCCCAAGGAGTGGTCGAGA showed a TetR repression strength of 0.05.
TCCCTGTAAGTTGTTGAGA gave a TetR repression strength of 0.427.
As to TCCCATAAAGTGGAGGAGA, the TetR repression strength stood at 0.178.
In turn, TCCCGAGCAGTGCAGGAGA showed a TetR repression strength of 0.226.
With TCCCGACGAGTGCCGGAGA, the TetR repression strength is 0.292.
TCCCCAGGAGTAGGCGAGA: the TetR repression strength is 0.207.
In turn, TCCCGGTCAGTCAGAGAGA gave a TetR repression strength of 0.466.
TCCCTACTAGTTTCCGAGA showed a TetR repression strength of 0.394.
On to TCCCGAGAAGTAGACGAGA, for which the TetR repression strength was determined as 0.15.
Consider TCCCTCTGAGTCTGTGAGA, for which the TetR repression strength turned out to be 0.531.
Next, TCCCTGGTAGTCCATGAGA: 0.277; TCCCCGCTAGTAGGCGAGA: 0.0667; TCCCGTTTAGTTATAGAGA: 0.384.
In turn, TCCCCGGAAGTGAAAGAGA displayed a TetR repression strength of 0.0806.
TCCCTGCTAGTATAGGAGA: the TetR repression strength stood at 0.227.
In the case of TCCCTCAAAGTTAATGAGA, the TetR repression strength came to 0.507.
TCCCGCCGAGTCGGGGAGA returned a TetR repression strength of 0.191.
Consider TCCCAACTAGTTGTGGAGA, for which the TetR repression strength is 0.388.
TCCCTCAAAGTCAACGAGA displayed a TetR repression strength of 0.356.
On to TCCCAATCAGTCATTGAGA, for which the TetR repression strength was 0.448.
For TCCCGGGCAGTGAATGAGA, the TetR repression strength turned out to be 0.315.
Sequence TCCCAGCCAGTGCAAGAGA registered a TetR repression strength of 0.475.
Regarding TCCCGGATAGTGGGCGAGA, the TetR repression strength was 0.164.
The sequence TCCCCATAAGTGGTGGAGA returned a TetR repression strength of 0.161.
Next, TCCCTACTAGTGCGTGAGA: 0.405; TCCCCGGGAGTAACAGAGA: 0.332; TCCCGTATAGTCCGGGAGA: 0.12.
TCCCTTTAAGTTCACGAGA showed a TetR repression strength of 0.199.
Sequence TCCCCGTAAGTTGGGGAGA showed a TetR repression strength of 0.262.
Sequence TCCCGGGGAGTAACGGAGA yielded a TetR repression strength of 0.108.
On to TCCCACATAGTACGAGAGA, for which the TetR repression strength was 0.00864.
The sequence TCCCCAGCAGTAGATGAGA showed a TetR repression strength of 0.253.
Next, TCCCATAGAGTCGGCGAGA: 0.142.
The sequence TCCCCTACAGTTACGGAGA yielded a TetR repression strength of 0.104.
As to TCCCTGAAAGTAATGGAGA, the TetR repression strength amounted to 0.239.
Sequence TCCCTGGTAGTGGGCGAGA came in with a TetR repression strength of 0.276.
Next, TCCCCCTAAGTTTCGGAGA: 0.294; TCCCCATAAGTCTCCGAGA: 0.354.
In the case of TCCCAAAGAGTGCGTGAGA, the TetR repression strength was 0.272.
TCCCGAACAGTGTGTGAGA: the TetR repression strength was 0.161.
In the case of TCCCCTCGAGTGCGGGAGA, the TetR repression strength was 0.0179.
Sequence TCCCGACTAGTCTTAGAGA displayed a TetR repression strength of 0.304.
Take TCCCAGCTAGTGCAAGAGA: the TetR repression strength is 0.388.
With TCCCTAGCAGTCGCTGAGA, the TetR repression strength came to 0.0944.
The sequence TCCCTTTAAGTGCGGGAGA yielded a TetR repression strength of 0.254.
In the case of TCCCAAGGAGTTTGTGAGA, the TetR repression strength was 0.286.
As to TCCCACGGAGTCTGCGAGA, the TetR repression strength amounted to 0.104.
Consider TCCCATCGAGTTTAGGAGA, for which the TetR repression strength was found to be 0.179.
Next, TCCCTACTAGTTGCCGAGA: 0.326.
Consider TCCCTATGAGTGTCGGAGA, for which the TetR repression strength turned out to be 0.132.
TCCCCCTCAGTATGAGAGA showed a TetR repression strength of 0.514.
TCCCATTTAGTGGCAGAGA: the TetR repression strength is 0.215.
For the sequence TCCCTGACAGTAACGGAGA, the TetR repression strength was 0.192.
As for TCCCCGTCAGTCACCGAGA, the TetR repression strength came to 0.65.
